# In the supplement of paper PMC8728848:
# The list shows a part of the results.
# Legend:
# Test in all cases: glycan array binding signal (z-score within array); higher = stronger binding
# Conditions in all cases: glycan notation: IUPAC condensed, linker removed
# [1] = molecular target: GlcNAc6S(b1-3)Gal(b1-4)GlcNAc
# Summary of the method: (§1)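 The binding signal is a Z-score computed within each array and averaged over linkers. Arrays of the same protein sequence at different concentrations or buffers were also averaged together. Data originate from 3228 arrays in the Consortium for Functional Glycomics database, kept only where the protein sequence was available.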
# Kdn(a2-3)Gal(b1-3)GalNAc = molecular target: Kdn(a2-3)Gal(b1-3)GalNAc
# Summary of the method: as §1
# Kdn(a2-3)Gal(b1-3)GlcNAc = molecular target: Kdn(a2-3)Gal(b1-3)GlcNAc
# Summary of the method: as §1
# Kdn(a2-3)Gal(b1-4)Glc = molecular target: Kdn(a2-3)Gal(b1-4)Glc
# Summary of the method: as §1
# Kdn(a2-3)Gal(b1-4)GlcNAc = molecular target: Kdn(a2-3)Gal(b1-4)GlcNAc
# Summary of the method: as §1
# [2] = molecular target: Kdn(a2-3)Gal(b1-4)[Fuc(a1-3)]GlcNAc
# Summary of the method: as §1
# Kdn(a2-6)Gal(b1-4)GlcNAc = molecular target: Kdn(a2-6)Gal(b1-4)GlcNAc
# Summary of the method: as §1
# [3] = molecular target: Man(a1-2)Man(a1-2)Man(a1-3)Man
# Summary of the method: as §1
# [4] = molecular target: Man(a1-2)Man(a1-2)Man(a1-6)[Man(a1-3)]Man
# Summary of the method: as §1
# Man(a1-2)Man(a1-3)Man = molecular target: Man(a1-2)Man(a1-3)Man
# Summary of the method: as §1
# [5] = molecular target: Man(a1-2)Man(a1-3)[Man(a1-2)Man(a1-6)]Man
# Summary of the method: as §1
# [6] = molecular target: Man(a1-2)Man(a1-3)[Man(a1-2)Man(a1-6)]Man(a1-6)[Man(a1-2)Man(a1-2)Man(a1-3)]Man
# Summary of the method: as §1
# [7] = molecular target: Man(a1-2)Man(a1-3)[Man(a1-2)Man(a1-6)]Man(a1-6)[Man(a1-2)Man(a1-2)Man(a1-3)]Man(b1-4)GlcNAc(b1-4)GlcNAc
# Summary of the method: as §1
# [8] = molecular target: Man(a1-2)Man(a1-3)[Man(a1-6)]Man(a1-6)[Man(a1-2)Man(a1-3)]Man(b1-4)GlcNAc(b1-4)GlcNAc
# Summary of the method: as §1
# [9] = molecular target: Man(a1-2)Man(a1-6)[Man(a1-3)]Man(a1-6)[Man(a1-2)Man(a1-2)Man(a1-3)]Man
# Summary of the method: as §1
# [10] = molecular target: Man(a1-2)Man(a1-6)[Man(a1-3)]Man(a1-6)[Man(a1-2)Man(a1-2)Man(a1-3)]Man(b1-4)GlcNAc(b1-4)GlcNAc
# Summary of the method: as §1
# Man(a1-3)[Man(a1-6)]Man = molecular target: Man(a1-3)[Man(a1-6)]Man
# Summary of the method: as §1
# [11] = molecular target: Man(a1-3)[Man(a1-6)]Man(a1-6)[Man(a1-2)Man(a1-3)]Man(b1-4)GlcNAc(b1-4)GlcNAc
# Summary of the method: as §1
# [12] = molecular target: Man(a1-3)[Man(a1-6)]Man(a1-6)[Man(a1-3)]Man
# Summary of the method: as §1
# [13] = molecular target: Man(a1-3)[Man(a1-6)]Man(a1-6)[Man(a1-3)]Man(b1-4)GlcNAc(b1-4)GlcNAc
# Summary of the method: as §1
# [14] = molecular target: Man(a1-3)[Man(a1-6)]Man(b1-4)GlcNAc(b1-4)GlcNAc
# Summary of the method: as §1
# Man(a1-6)Man = molecular target: Man(a1-6)Man
# Summary of the method: as §1
# Man(b1-4)GlcNAc = molecular target: Man(b1-4)GlcNAc
# Summary of the method: as §1
# Neu5Ac(a2-3)Gal = molecular target: Neu5Ac(a2-3)Gal
# Summary of the method: as §1
# [15] = molecular target: Neu5Ac(a2-3)Gal(b1-3)GalNAc
# Summary of the method: as §1
# [16] = molecular target: Neu5Ac(a2-3)Gal(b1-3)GalNAc(b1-3)Gal(a1-4)Gal(b1-4)Glc
# Summary of the method: as §1
# [17] = molecular target: Neu5Ac(a2-3)Gal(b1-3)GalNAc(b1-4)[Neu5Ac(a2-3)]Gal(b1-4)Glc
# Summary of the method: as §1
# [18] = molecular target: Neu5Ac(a2-3)Gal(b1-3)GalNAc6S
# Summary of the method: as §1
# [19] = molecular target: Neu5Ac(a2-3)Gal(b1-3)GlcNAc
# Summary of the method: as §1
# [20] = molecular target: Neu5Ac(a2-3)Gal(b1-3)GlcNAc(b1-2)Man(a1-3)[Neu5Ac(a2-3)Gal(b1-3)GlcNAc(b1-2)Man(a1-6)]Man(b1-4)GlcNAc(b1-4)GlcNAc
# Summary of the method: as §1
# [21] = molecular target: Neu5Ac(a2-3)Gal(b1-3)GlcNAc(b1-3)Gal(b1-3)GlcNAc
# Summary of the method: as §1
# [22] = molecular target: Neu5Ac(a2-3)Gal(b1-3)GlcNAc(b1-3)Gal(b1-4)GlcNAc
# Summary of the method: as §1
# [23] = molecular target: Neu5Ac(a2-3)Gal(b1-3)GlcNAc(b1-3)GalNAc
# Summary of the method: as §1
# [24] = molecular target: Neu5Ac(a2-3)Gal(b1-3)GlcNAc6S
# Summary of the method: as §1
# [25] = molecular target: Neu5Ac(a2-3)Gal(b1-3)[Fuc(a1-4)]GlcNAc
# Summary of the method: as §1
# [26] = molecular target: Neu5Ac(a2-3)Gal(b1-3)[Fuc(a1-4)]GlcNAc(b1-3)Gal(b1-3)[Fuc(a1-4)]GlcNAc
# Summary of the method: as §1
# [27] = molecular target: Neu5Ac(a2-3)Gal(b1-3)[Fuc(a1-4)]GlcNAc(b1-3)Gal(b1-4)[Fuc(a1-3)]GlcNAc
# Summary of the method: as §1
# [28] = molecular target: Neu5Ac(a2-3)Gal(b1-3)[Neu5Ac(a2-3)Gal(b1-4)]GlcNAc
# Summary of the method: as §1
# [29] = molecular target: Neu5Ac(a2-3)Gal(b1-3)[Neu5Ac(a2-6)]GalNAc
# Summary of the method: as §1
# Neu5Ac(a2-3)Gal(b1-4)Glc = molecular target: Neu5Ac(a2-3)Gal(b1-4)Glc
# Summary of the method: as §1
# [30] = molecular target: Neu5Ac(a2-3)Gal(b1-4)GlcNAc
# Summary of the method: as §1
# [31] = molecular target: Neu5Ac(a2-3)Gal(b1-4)GlcNAc(b1-2)Man(a1-3)[GlcNAc(b1-2)Man(b1-4)GlcNAc(b1-2)Man(a1-6)]Man(b1-4)GlcNAc(b1-4)GlcNAc
# Summary of the method: as §1
# [32] = molecular target: Neu5Ac(a2-3)Gal(b1-4)GlcNAc(b1-2)Man(a1-3)[Neu5Ac(a2-6)Gal(b1-4)GlcNAc(b1-2)Man(a1-6)]Man(b1-4)GlcNAc(b1-4)GlcNAc
# Summary of the method: as §1
# [33] = molecular target: Neu5Ac(a2-3)Gal(b1-4)GlcNAc(b1-3)Gal(b1-3)GlcNAc
# Summary of the method: as §1
# [34] = molecular target: Neu5Ac(a2-3)Gal(b1-4)GlcNAc(b1-3)Gal(b1-4)GlcNAc
# Summary of the method: as §1
binder,measurement,setting,value
"CTLY 1 (Homo sapiens), Q6ZS10 (protein) AITCPEGWLPFEGKCYYFSPSTKSWDEARMFCQENYSHLVIINSFAEHNFVAKAHGSPRVYWLGLNDRAQEGDWRWLDGSPVTLSFWEPEEPNNIHDEDCATMNKGGTWNDLSCYKTTYWICERKGLNDIFEAQKIEWHE",glycan array binding signal (z-score),[1],-0.249
same,glycan array binding signal (z-score),Kdn(a2-3)Gal(b1-3)GalNAc,-0.237
same,glycan array binding signal (z-score),Kdn(a2-3)Gal(b1-3)GlcNAc,-0.218
same,glycan array binding signal (z-score),Kdn(a2-3)Gal(b1-4)Glc,-0.217
same,glycan array binding signal (z-score),Kdn(a2-3)Gal(b1-4)GlcNAc,-0.234
same,glycan array binding signal (z-score),[2],-0.246
same,glycan array binding signal (z-score),Kdn(a2-6)Gal(b1-4)GlcNAc,-0.232
same,glycan array binding signal (z-score),[3],6.07
same,glycan array binding signal (z-score),[4],10.1
same,glycan array binding signal (z-score),Man(a1-2)Man(a1-3)Man,1.1
same,glycan array binding signal (z-score),[5],4.5
same,glycan array binding signal (z-score),[6],8.68
same,glycan array binding signal (z-score),[7],-0.232
same,glycan array binding signal (z-score),[8],-0.023
same,glycan array binding signal (z-score),[9],4.81
same,glycan array binding signal (z-score),[10],0.475
same,glycan array binding signal (z-score),Man(a1-3)[Man(a1-6)]Man,-0.175
same,glycan array binding signal (z-score),[11],0.443
same,glycan array binding signal (z-score),[12],-0.185
same,glycan array binding signal (z-score),[13],-0.105
same,glycan array binding signal (z-score),[14],-0.209
same,glycan array binding signal (z-score),Man(a1-6)Man,-0.228
same,glycan array binding signal (z-score),Man(b1-4)GlcNAc,-0.239
same,glycan array binding signal (z-score),Neu5Ac(a2-3)Gal,-0.238
same,glycan array binding signal (z-score),[15],-0.249
same,glycan array binding signal (z-score),[16],-0.202
same,glycan array binding signal (z-score),[17],-0.231
same,glycan array binding signal (z-score),[18],-0.225
same,glycan array binding signal (z-score),[19],-0.247
same,glycan array binding signal (z-score),[20],-0.228
same,glycan array binding signal (z-score),[21],-0.221
same,glycan array binding signal (z-score),[22],-0.235
same,glycan array binding signal (z-score),[23],-0.237
same,glycan array binding signal (z-score),[24],-0.221
same,glycan array binding signal (z-score),[25],0.687
same,glycan array binding signal (z-score),[26],0.772
same,glycan array binding signal (z-score),[27],0.555
same,glycan array binding signal (z-score),[28],-0.254
same,glycan array binding signal (z-score),[29],-0.23
same,glycan array binding signal (z-score),Neu5Ac(a2-3)Gal(b1-4)Glc,-0.24
same,glycan array binding signal (z-score),[30],-0.229
same,glycan array binding signal (z-score),[31],-0.241
same,glycan array binding signal (z-score),[32],-0.247
same,glycan array binding signal (z-score),[33],-0.248
same,glycan array binding signal (z-score),[34],-0.264
